B1: CPEB3 Ribozyme (parent)
chain: UAACAGGGGGCCACAGCAGAAGCGUUCACGUCGCAGCCCCUGUCAGAUUCUGGUGAAUCUGCGAAUUCUGCUGUAUAUCUC

Read counts are not given, so values of variants with three or more changes are uncertain.

Variants of B1 are the subject of this series. As to the kind of experiment: self-cleavage, relative activity (ratio to wild type); higher = more cleavage; in vitro, sequencing. In outline: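 Barcoded CPEB3 ribozyme mutants, produced by rounds of error-prone PCR, self-cleaved while being transcribed with T7 RNA polymerase for 5 hours at 37°C and during a subsequent 15 min DNase I step before EDTA was added. Sequencing of template-switched cDNA on Illumina gave cleaved and total reads, and DNA sequencing assigned barcodes to variants. Each variant's relative activity is its cleaved/total read fraction divided by the unmutated ribozyme's fraction, averaged across three batches. A variant needed a minimum of 5 reads.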
Turning to UUACAGGGGGCCACUGCAGAAGCGUUCACGUCGCAGCCCCUGUUAGAUUCUGGUGAAUCUGCGAAUUCUGCUGUAUAUCUC [A2U A15U C44U], the self-cleavage stood at 0.21. Under UUACGGGGGGCCACAGCAGAAGCGUUCACGUCGCCGCCCCUGUCAGAUUCUGGUGAAUCUGCGAAUUCUGCUGUAUAUCUC [A2U A5G A35C] stands 0.53; under UUACAGGGGGCCGCAGCAGAAGCGUUCACGUCGCAGCCCCUGUCAGAUUCUGGUGGAUCUGCGAAUUCUGCUGUAUAUCUC [A2U A13G A56G], 0.46; under UUACUGGGGGCCACAGCAGAAGUGUUCACGUCGCUGCCCCUGUCAGAUUCUGGUGAAUCUGCGAAUUCUGCAGUAUAUCCC [A2U A5U C23U A35U U72A U80C], 0.08.

In the case of UUACUGGGGGCCACGGCAGAAGCGUUCACGUCGCAGCCCCUGUCAGAUUCUGGUGAAUCUGCGAGUUCUGCUGUAUAUCUC [A2U A5U A15G A65G], the self-cleavage is 0.29. The figure for UUACAGGGGGCCACAGCUGAAGCGUUCACGUCGCUGCCCCUGUCGGAUUCUGGUGGAUCUGCGAAUUCUGCUGUAUAUCUC [A2U A18U A35U A45G A56G] is 0.39; for UUGCAGGGGGCCACAGCAGAAGCGCUCUCGUCGCAGCCCCUGUCAGAUUCUGGUGGAUCUGCUAAUUCUGCUGUAUAUCUC [A2U A3G U25C A28U A56G G63U] it is 0.08; for UUACUGGGGGCCACAGCAGAAGCGUUCACGUCGCAGCCCCUGCCAGAUUCUGGUGAAUCUGCGAAUUCUGCUGUAUAUCUC [A2U A5U U43C] it is 0.84. For UUACAGGGGGCCACUGCAGAUGCGUUCACGUCGCAGCCCCUGGCUGGUUCUGGUGAAUCUGCGAAUUCUGCUGUAUACCUC [A2U A15U A21U U43G A45U A47G U78C], the self-cleavage amounted to 0. The figure for UUACAGGGGGCCACGGCAGAAGCGUUCACGUCGCAGCCCCUGUCAGAUCCUGGUGAAUCUGCGAAUUCUGCUGUAUAUCUC [A2U A15G U49C] is 0.34; for UUGCAGGGGGCCACAGCAGAAGCGUUCACGUCGCGGCCCCGGUCAGAUUCUGGUGAAUCUGCGAGUUCCGCUGUAUAUCUC [A2U A3G A35G U41G A65G U69C] it is 0.17. For the variant UUACAGGGGGCCGCAGCAGAAGCGUUCACGUCGCAGCCCCUGUCAGAUUCUGGUGAGUCUGCGAAUUCUGCUGUAUAUCUC [A2U A13G A57G], the self-cleavage stood at 0.92. Under UUACAGGGGGCCACAGCGGAAGCGUUCUCGUCGCAGCCUCUGUCAGAUUCUGGUGAAUCUGCGAUUUCUGCUGUAUAUCUC [A2U A18G A28U C39U A65U] stands 0.14.

In the case of UUACGGGGGGCCACAGCAGAAGCGUUCACGUCGCAGCCCCUGUCAGAUUCUGGUGAAUCUGCGUAUUCUGCUGUAUAUCUC [A2U A5G A64U], the self-cleavage stood at 0.11. Take UUGAAGGGGGCCACAGCUGAAGCGUUCACGUCGCAGCCCCUGUCAGAUUCUGGUGAAUCUGCGAAUCCUGCUGAAUAUCUC [A2U A3G C4A A18U U67C U74A]: the self-cleavage stood at 0.09. For the variant UUACAGGGGGCCACAGCGGAAGCGAUCUCGUCGCAGACCCUGUCAGAUUCUGGUGAAUCUGCGAAUUCUGCAGUAUAUCUC [A2U A18G U25A A28U C37A U72A], the self-cleavage was found to be 0.04. Under UUACGGGGGGCCACAGCAGAAGCGUUCACGUCGCACCCCCUGUCAGAUUCUGGUGUAUCUGCGAAAUCUGCUGUAUAUCUC [A2U A5G G36C A56U U66A] stands 0.16. The figure for UUACGGGGGGCCACAGCAGGAGCGUUCACGUCGCAGCCCCUGUCAGACUCUGGUGAAUCUGCGAAUUCUGCAGUGUAUCUC [A2U A5G A20G U48C U72A A75G] is 0.11; for UUACAGGGGGCCGCAGCGGAAGCGUUCUCGUCGCAGCCCCUGCCAGAUUCUGGUGAAUCUGCGAAUUCUGCUGUAUAUCUC [A2U A13G A18G A28U U43C] it is 0.09. Regarding UUACAGGGGGCCACGGCAGAAGCGUUCACGUCGCAGCCCCUGUCAGAUUCUGGUGAAUCUGUGAACUCUGCUGUACAUCUC [A2U A15G C62U U66C U76C], the self-cleavage was found to be 0.06.

UUACGGGGGGCCUCAGCAGAAGCGUUCACGUCGCAGCCCCUGUCAGAUUCUGGUGAAGCUGCGAAUUCUGCAGUAAAUCUC [A2U A5G A13U U58G U72A U76A]: the self-cleavage turned out to be 0.3.

With UUACGGGGGGCCACAGCAGAAGCGUUCGCGUCGCAGCCCCUGACGGAUUCUGGUGAGUCUGCGAAUUCUGCUGUAUAUCUC [A2U A5G A28G U43A A45G A57G], the self-cleavage was found to be 0.04. Regarding UUACAGGGGGCCACAGCUGAGGCGUUCACGUCGCGGCCCCUGUCAGAUUCAGGUGAAUCUGCGAAUUCUGCUGUAUAUCUC [A2U A18U A21G A35G U51A], the self-cleavage was 0.14.

On to UUACUGGGGGCCACCGCAGAAGCGUUCACGUCGCAGCCCCCGUCAGAUUCUGGUGAAUCUGCGAAUCCCGCUGUAUAUCUC [A2U A5U A15C U41C U67C U69C], for which the self-cleavage came to 0.14. Under UUACAGGGGGCCACUGCAGAAGCGUUCACGUCGCAGCCCCUGUCAGAUUCUGGUGAAUCUGCGAAUUCUGCUGUUUAUCUC [A2U A15U A75U] stands 0.91; under UUACGGGGGGCCACAGCAGAGGCGUUCACGUCGCAGCCCCUGUCAGGUUCUGGUGAGUCUGCGAAUUCUGCUGUAUGUCUC [A2U A5G A21G A47G A57G A77G], 0.53.

Consider UUACAGGGGGCCACUGCAGAAGCGUUCACGUCGCAGCCCCUGUCAGAAUCCGGUGAAUCUGCGAAUUCUGCUGUAUAUCUC [A2U A15U U48A U51C], for which the self-cleavage was 0.19. With UUACAGGGGGCCACGGCAGAUGCGUUCACGUCGCAGCCCCUGUCAGAUUCUGGUGAAUCUGCGAAUUCUGCUGUAUAUCUC [A2U A15G A21U], the self-cleavage is 0.32. Under UUACAGGGGGCCGCAGCAGAAGCGUUCACGUCGCAGCCCUCGUCAGAUUCUGGUGAAUCUGCGAAUUCUGCUAUAUAUCUC [A2U A13G C40U U41C G73A] stands 1.15; under UUACUGGGGGCCACUGCAGGAGCGUUCACGUCGCAGCCCCUGUCAGAUUCUGGUGAAUCUGCGAAUUCUGCUGUAUAUCUC [A2U A5U A15U A20G], 0.45. For the variant UUACAGGGGGCCACUGCAGAAGCGCUCACGUCGCAGCCCCUGUCAGAUUCUGGUGAAUCUGCGGAUCCUGCUGUAUAUCUC [A2U A15U U25C A64G U67C], the self-cleavage turned out to be 0.25. The figure for UUACGGGGGGCCACAGCUGAAGCGUUCACGUCGCAGCCCCAGUCAGAUUCUAGUGAAUCAGCGAAUUCUGCUGCAUAUCUC [A2U A5G A18U U41A G52A U60A U74C] is 0.15; for UUGCAGGGGGCCACAGCUGAAGCGAUCACGUCGCAGCCCCAGUCUGAUUCUGGCGAAUCUGCGAAUUCUGCUGUAUAUCUC [A2U A3G A18U U25A U41A A45U U54C] it is 0.07. UUACAGGGGGCCUCAGCGGGAGCGUUCGCGUCGCAGCCCCUGUCGGAUUCUGGUGAGUCUGCGAAUUCUGCUGUAUAUCUC [A2U A13U A18G A20G A28G A45G A57G]: the self-cleavage turned out to be 0.38.

The record behind these values is the RNAGym collection of RNA variant scans (doi:10.1093/nar/gkz1192).
